Measured values from a collection of fitness landscapes (doi:10.1016/j.celrep.2020.107928).
Over roughly 81,000 sequences, “one-hybrid fitness for binding NBS DNA” has its median near -0.1; the highest 2% begin near 0.36. The list shows a part of the results.

B1: Caulobacter ParB omega fusion; a variant is named by its letters at X, in order, B8GW30 (parent)
chain: MESVVVGEPGMSEGRRGLGRGLSALLGEVDAAPAQAPGEQLGGSREAPIEILQRNPDQPRRTFREEDLEDLSNSIREKGVLQPILVRPSPDTAGEYQIVAGERAWRAAQRAGLKTVPIMVRELDDLAVLEIGIIENVQRADLNVLEEALSYKVLMEKFERTQENIAQTIGKSXSHVANXMRLLXLPDEVQSYLVSGELTAXHARAIAAAADPVALAKQIIEGGLSVRETEALARKAPNLSAGKSKGGRPPRVKDTDTQALESDLSSVLGLDVSIDHRGSTGTLTITYATLEQLDDLCNRLTRGI

Variants of: B1
Experiment: one-hybrid fitness for binding NBS DNA (the Noc-binding site; scaled: cognate 1, non-cognate 0); higher = stronger binding
Conditions: with NBS DNA site
How it was run: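 Bacterial one-hybrid selection in E. coli USO rpoZ- hisB- pyrF- with a HIS3 reporter carrying the site 19 bp from the promoter, screening Caulobacter ParB libraries with four specificity codons randomised (NNS). Cells grew 48 hours at 37°C on M9-minus-histidine plus 0.1 mM IPTG and 5 mM 3-AT. Plasmids before and after selection were Illumina-sequenced, three replicate libraries pooled, and variants under 10 reads dropped. Fitness is the log change in variant-to-wild-type read ratio, rescaled to cognate 1, non-cognate 0.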

| Variant | one-hybrid fitness for binding NBS DNA |
| --- | --- |
| AYRE | ≤ 0.2 |
| RFRL | ≤ 0.2 |
| TMCI | ≤ 0.2 |
| NGSP | ≤ 0.2 |
| SLFG | ≤ 0.2 |
| PHIY | ≤ 0.2 |
| SSKF | ≤ 0.2 |
| NVHT | ≤ 0.2 |
| PRLH | ≤ 0.2 |
| RLWN | ≤ 0.2 |
| DQQS | ≤ 0.2 |
| YQVV | ≤ 0.2 |
| CIKC | ≤ 0.2 |
| RVDD | ≤ 0.2 |
| QLKK | 0.346 |
| ACNI | ≤ 0.2 |
| NDFR | ≤ 0.2 |
| RNVA | ≤ 0.2 |
| FNTM | ≤ 0.2 |
| CIER | ≤ 0.2 |
| DHKT | ≤ 0.2 |
| AFNS | ≤ 0.2 |
| PSHL | ≤ 0.2 |
| SPNT | ≤ 0.2 |

| Variant | one-hybrid fitness for binding NBS DNA |
| --- | --- |
| HALV | ≤ 0.2 |
| SIRH | ≤ 0.2 |
| SPST | ≤ 0.2 |
| RPNL | ≤ 0.2 |
| DQPM | ≤ 0.2 |
| STRR | 0.244 |
| ARSN | ≤ 0.2 |
| QCCC | ≤ 0.2 |
| RGCF | ≤ 0.2 |
| EKER | ≤ 0.2 |
| TAIT | ≤ 0.2 |
| PDTE | ≤ 0.2 |
| GADV | ≤ 0.2 |
| EIAT | ≤ 0.2 |
| TIHC | ≤ 0.2 |
| VYSN | ≤ 0.2 |
| VATG | ≤ 0.2 |
| ASKY | ≤ 0.2 |
| DLPY | ≤ 0.2 |
| ACHK | ≤ 0.2 |
| ALYC | ≤ 0.2 |
| SNGV | ≤ 0.2 |
| HFKT | ≤ 0.2 |
| RKIN | ≤ 0.2 |

| Variant | one-hybrid fitness for binding NBS DNA |
| --- | --- |
| GVGT | ≤ 0.2 |
| TSTV | ≤ 0.2 |
| RPYD | ≤ 0.2 |
| PKMN | ≤ 0.2 |
| QSTA | 0.219 |
| KEHT | ≤ 0.2 |
| WYVV | ≤ 0.2 |
| FVRM | ≤ 0.2 |
| QLQY | ≤ 0.2 |
| MRER | ≤ 0.2 |
| KRSV | ≤ 0.2 |
| RHEI | ≤ 0.2 |
| CTRF | ≤ 0.2 |
| VTQT | ≤ 0.2 |
| TSVS | ≤ 0.2 |
| PFSR | ≤ 0.2 |
| AHGN | ≤ 0.2 |
| HCTF | ≤ 0.2 |
| QSCC | ≤ 0.2 |
| PECT | ≤ 0.2 |
| PCCY | ≤ 0.2 |
| RKAL | ≤ 0.2 |
| VYKP | ≤ 0.2 |
| HFLT | ≤ 0.2 |

| Variant | one-hybrid fitness for binding NBS DNA |
| --- | --- |
| HHEG | ≤ 0.2 |
| YLSQ | ≤ 0.2 |
| VSMS | ≤ 0.2 |
| HAGM | ≤ 0.2 |
| ASML | ≤ 0.2 |
| QHPC | ≤ 0.2 |
| VLWL | ≤ 0.2 |
| MKPA | ≤ 0.2 |
| WQSC | ≤ 0.2 |
| AQHS | ≤ 0.2 |
| AFSW | ≤ 0.2 |
| MHHD | ≤ 0.2 |
| HPRA | ≤ 0.2 |
| YQST | ≤ 0.2 |
| VYSK | ≤ 0.2 |
| QWAV | ≤ 0.2 |
| VIWC | ≤ 0.2 |
| GPLR | ≤ 0.2 |
| LRPF | ≤ 0.2 |
| AMNS | ≤ 0.2 |
| GKSN | ≤ 0.2 |
| VRNS | ≤ 0.2 |
| WSYG | ≤ 0.2 |
| ESMD | ≤ 0.2 |

| Variant | one-hybrid fitness for binding NBS DNA |
| --- | --- |
| HPFS | ≤ 0.2 |
| PISC | ≤ 0.2 |
| CHSV | ≤ 0.2 |
| RGDL | ≤ 0.2 |
| QYTL | ≤ 0.2 |
| QVSW | ≤ 0.2 |
| STVN | ≤ 0.2 |
| EYIC | ≤ 0.2 |
| CRML | ≤ 0.2 |
| WSWT | ≤ 0.2 |
| ANCA | ≤ 0.2 |
| GRIG | ≤ 0.2 |
| ATTL | ≤ 0.2 |
| KYCT | ≤ 0.2 |
| FMES | ≤ 0.2 |
| QWGH | ≤ 0.2 |
| RPII | ≤ 0.2 |
| EGHP | ≤ 0.2 |
| TSLN | ≤ 0.2 |
| EIHG | ≤ 0.2 |
| TIWP | ≤ 0.2 |
| KGCG | ≤ 0.2 |
| ISTL | ≤ 0.2 |
| PIRF | ≤ 0.2 |

| Variant | one-hybrid fitness for binding NBS DNA |
| --- | --- |
| DNLN | ≤ 0.2 |
| YWYG | ≤ 0.2 |
| KLDG | ≤ 0.2 |
| HMGY | ≤ 0.2 |
| PSNA | ≤ 0.2 |
| IVTC | ≤ 0.2 |
| VAGE | ≤ 0.2 |
| ESRT | ≤ 0.2 |
| FWKR | 0.328 |
| NSRC | ≤ 0.2 |
| MLMG | ≤ 0.2 |
| VKLT | ≤ 0.2 |
| KLPW | ≤ 0.2 |
| VHPV | ≤ 0.2 |
| AVTY | ≤ 0.2 |
| FNVG | ≤ 0.2 |
| LVQY | ≤ 0.2 |
| KHWR | ≤ 0.2 |
| MLWS | ≤ 0.2 |
| LLHV | ≤ 0.2 |
| PKTM | ≤ 0.2 |
| KRMY | ≤ 0.2 |
| ATDM | ≤ 0.2 |
| YKTP | ≤ 0.2 |

| Variant | one-hybrid fitness for binding NBS DNA |
| --- | --- |
| RCME | ≤ 0.2 |
| LVGY | ≤ 0.2 |
| LPSW | ≤ 0.2 |
| SPWS | ≤ 0.2 |
| NQRY | ≤ 0.2 |
| TKMP | ≤ 0.2 |
| CISG | ≤ 0.2 |
| PDCC | ≤ 0.2 |
| SDSD | ≤ 0.2 |
| CKSS | ≤ 0.2 |
| NTVG | ≤ 0.2 |
| SSIR | ≤ 0.2 |
| VIKY | ≤ 0.2 |
| LWRG | ≤ 0.2 |
| ATIM | ≤ 0.2 |
| KDRC | ≤ 0.2 |
| CCKV | ≤ 0.2 |
| EANY | ≤ 0.2 |
| IRKQ | ≤ 0.2 |
| ACIG | ≤ 0.2 |
| MLNF | ≤ 0.2 |
| SHPS | ≤ 0.2 |
| WCCR | ≤ 0.2 |
| AGEN | ≤ 0.2 |

| Variant | one-hybrid fitness for binding NBS DNA |
| --- | --- |
| KVMN | ≤ 0.2 |
| DSLY | ≤ 0.2 |
| NNKR | ≤ 0.2 |
| FRPW | ≤ 0.2 |
| LSRR | ≤ 0.2 |
| GHLN | ≤ 0.2 |
| QMWM | ≤ 0.2 |
| TGAG | ≤ 0.2 |
| VHFT | ≤ 0.2 |
| HVKT | ≤ 0.2 |
| NMYR | ≤ 0.2 |
| TIGV | ≤ 0.2 |
| PARN | ≤ 0.2 |
| LMKL | ≤ 0.2 |
| PDMT | ≤ 0.2 |
| HQMR | ≤ 0.2 |
| KHLT | ≤ 0.2 |
| AIPS | ≤ 0.2 |
| IVRS | ≤ 0.2 |
| YAII | ≤ 0.2 |
| MRRL | ≤ 0.2 |
| KRNF | ≤ 0.2 |
| KIIC | ≤ 0.2 |
| RVRQ | ≤ 0.2 |

| Variant | one-hybrid fitness for binding NBS DNA |
| --- | --- |
| AMFL | ≤ 0.2 |
| QRLP | ≤ 0.2 |
| MVPW | ≤ 0.2 |
| DTWR | ≤ 0.2 |
| HIMY | ≤ 0.2 |
| YAWL | ≤ 0.2 |
| NLAR | ≤ 0.2 |
| QGKI | ≤ 0.2 |
| MMMS | ≤ 0.2 |
| RMQG | ≤ 0.2 |
| VPSH | ≤ 0.2 |
| FVTT | ≤ 0.2 |
| PKPM | ≤ 0.2 |
| TRDE | ≤ 0.2 |
| KQHS | ≤ 0.2 |
| EVHR | ≤ 0.2 |
| LHPD | ≤ 0.2 |
| PHQK | ≤ 0.2 |
| QQCD | ≤ 0.2 |
| YSNF | ≤ 0.2 |
| RDLA | ≤ 0.2 |
| RYPG | ≤ 0.2 |
| PDWL | ≤ 0.2 |
| YSKD | ≤ 0.2 |

| Variant | one-hybrid fitness for binding NBS DNA |
| --- | --- |
| RGTT | ≤ 0.2 |
| QMVD | ≤ 0.2 |
| LPHF | ≤ 0.2 |
| GSQN | ≤ 0.2 |
| PALN | ≤ 0.2 |
| HEYG | ≤ 0.2 |
| RSYI | ≤ 0.2 |
| MTSS | ≤ 0.2 |
| CHWS | ≤ 0.2 |
| CLMR | ≤ 0.2 |
| DTIL | ≤ 0.2 |
| SVTN | ≤ 0.2 |
| YNCF | ≤ 0.2 |
| ANNN | ≤ 0.2 |
| KHAS | ≤ 0.2 |
| YDHE | ≤ 0.2 |
| PCAP | ≤ 0.2 |
| TKST | ≤ 0.2 |
| AGYV | ≤ 0.2 |
| NHDQ | ≤ 0.2 |
| DVNP | ≤ 0.2 |
| RASY | ≤ 0.2 |
| QAKV | 0.393 |
| LFKV | ≤ 0.2 |

| Variant | one-hybrid fitness for binding NBS DNA |
| --- | --- |
| YCER | ≤ 0.2 |
| RWRS | 0.234 |
| HAPL | ≤ 0.2 |
| PKDR | ≤ 0.2 |
| TTRF | ≤ 0.2 |
| TPLN | ≤ 0.2 |
| QPGT | ≤ 0.2 |
| LLPV | ≤ 0.2 |
| VCAF | ≤ 0.2 |
| NGTG | ≤ 0.2 |
| VRKN | ≤ 0.2 |
| LEFG | ≤ 0.2 |
| NMGD | ≤ 0.2 |
| SMKA | ≤ 0.2 |
| RCDW | ≤ 0.2 |
| QHDW | ≤ 0.2 |
| WYMG | ≤ 0.2 |
| IHVR | ≤ 0.2 |
| MPFH | ≤ 0.2 |
| QSCK | ≤ 0.2 |
| VIYD | ≤ 0.2 |
| GMIG | ≤ 0.2 |
| YYVT | ≤ 0.2 |
| SYRN | ≤ 0.2 |

| Variant | one-hybrid fitness for binding NBS DNA |
| --- | --- |
| PRHL | ≤ 0.2 |
| CDCG | ≤ 0.2 |
| HRNT | 0.255 |
| NMAT | ≤ 0.2 |
| NHRG | ≤ 0.2 |
| QAAE | ≤ 0.2 |
| MRTC | ≤ 0.2 |
| TWSL | ≤ 0.2 |
| CNDR | ≤ 0.2 |
| QFVT | ≤ 0.2 |
| PHNL | ≤ 0.2 |
| HKQM | ≤ 0.2 |
| INRT | ≤ 0.2 |
| EALT | ≤ 0.2 |
| ALSK | ≤ 0.2 |
| QQSE | ≤ 0.2 |
| SVGM | ≤ 0.2 |
| TGCR | ≤ 0.2 |
| FWYS | ≤ 0.2 |
| HDHI | ≤ 0.2 |
| WHHT | ≤ 0.2 |
| QSSI | ≤ 0.2 |
| KALA | ≤ 0.2 |
| LYMW | ≤ 0.2 |

| Variant | one-hybrid fitness for binding NBS DNA |
| --- | --- |
| SESF | ≤ 0.2 |
| VFHG | ≤ 0.2 |
| QAVT | 0.296 |
| RWWN | ≤ 0.2 |
| KPRG | ≤ 0.2 |
| PLEC | ≤ 0.2 |
| PPGW | ≤ 0.2 |
| YKVR | ≤ 0.2 |
| PWPP | ≤ 0.2 |
| ARTE | ≤ 0.2 |
| TFAS | ≤ 0.2 |
| EVDR | ≤ 0.2 |
| RTYA | 0.268 |
| DSFY | ≤ 0.2 |
| AMNW | ≤ 0.2 |
| KVLC | ≤ 0.2 |
| MYMA | ≤ 0.2 |
| DYMF | ≤ 0.2 |
